Experimental data: PubChem BioAssay AID463173 (ICCB-Longwood Screening Facility, Harvard Medical School, 2010)
Among all 52,000 compounds or so, about 1,700 (3.3%) were called active. Rule as the data show it: active = survival mostly below about 52% (no sharp cut-off); inactive = mostly above about 56%. The list shows a part of the results.

These compounds were tested on Wild type (assay: S. aureus survival, RN4220 and DeltatarO strains – OD600, teichoic acid synthesis inhibitors, primary screen (AID 463173)). Conditions: S. aureus RN4220 wild type/DeltatarO growth, OD600, 18 h, active compounds read low, screened at 18.75 µg/mL (by protocol).

SMILES | survival
Cn1c(SCC(=O)N2c3ccccc3Sc3ccccc32)nnc1-c1ccco1 | inactive: 102%
O=C(Nc1ccc(Br)cc1)C1CCN(c2cnccn2)CC1 | inactive: 93%
O=C(O)c1ccc(CSc2n[nH]c(-c3ccco3)n2)cc1 | inactive: 109%
CCOc1ccc(C(=O)Nc2cccc(NC(=O)c3ccco3)c2)cc1Cl | inactive: 71%
COc1ccccc1CNC(=O)c1ccc(N2CCCC2)c(NC(=O)NCc2ccccc2)c1 | inactive: 70%
CCN(CC)S(=O)(=O)c1nnc(NC(=O)COc2ccccc2Cl)s1 | inactive: 86%
CCC(C(=O)N1CCN(c2ccccc2)CC1)n1nc(C)n2c(cc3sccc32)c1=O (stereo not given) | inactive: 94%
O=C(COc1ccccc1F)OCc1cc(=O)n2nc(-c3cccs3)sc2n1 | inactive: 123%
Cc1ccccc1CNC(=O)C1CCN(c2nn3cc(-c4ccc(F)cc4)nc3s2)CC1 | inactive: 66%
CCC(CC)c1nn2c(=O)cc(COc3ccc(NC(=O)c4ccccc4Cl)cc3)nc2s1 | inactive: 84%
NC(=O)c1cc(S(=O)(=O)N2CCN(c3ccc(F)cc3)CC2)cs1 | inactive: 78%
Cc1cccc(CNS(=O)(=O)c2ccc3[nH]c(=O)ccc3c2)c1 | inactive: 124%
CC1CCCCN1CCCNC(=O)Cn1ncc2c([nH]c3ccccc32)c1=O (stereo not given) | inactive: 130%
COc1ccc(Cn2c(=O)[nH]c3cc(C(=O)N4CCN(c5cc(C)ccc5C)CC4)ccc3c2=O)cc1 | inactive: 66%
COc1ccc(C)cc1NC(=O)c1cc(S(=O)(=O)NC2CCCCCC2)ccc1F | inactive: 74%
COc1ccc(-c2cnnn2-c2ccc(NC(=O)c3ccc(S(=O)(=O)N(C)C)cc3)cc2)cc1 | inactive: 71%
COc1ccc(-c2cnnn2-c2ccc(NC(=O)c3c(F)cccc3F)cc2)cc1 | inactive: 120%
Cc1nc(N)sc1C(N)=O | inactive: 115%
CC(C)Cn1c(=O)c2ccccc2n2c(CCC(=O)Nc3cccc(Cl)c3)nnc12 | inactive: 89%
CCOC(=O)c1cnc2cc(-c3ccc(Cl)cc3)nn2c1-c1ccccc1 | inactive: 92%
CC(=O)c1cc(-c2ccccc2)n(CC(=O)NC2CCCCC2)c1C | inactive: 77%
Cc1ccc(NC(=O)Cn2c(=O)n(CCCCCC(=O)NCc3ccc(F)cc3)c(=O)c3sccc32)cc1C | inactive: 84%
CCCOc1ccc(-c2nn(-c3ccccc3)cc2C2NC(=O)NC(C)=C2C(=O)OC(C)C)cc1 (stereo not given) | inactive: 66%

SMILES | survival
O=C1Nc2c(c(=O)[nH]c(=O)n2-c2ccccc2)C1(NS(=O)(=O)c1ccc(Cl)cc1)C(F)(F)F (stereo not given) | inactive: 130%
CCOc1ccc(Cn2nnc3c(=O)[nH]c(C4CCN(C(=O)c5ccccc5)CC4)nc32)cc1 | active: 3%
COc1cc(-c2nnc(SCC(=O)NCc3ccccc3Cl)o2)cc(OC)c1OC | inactive: 104%
O=C(Cc1ccc(F)cc1)NC1CC(=O)N(c2ccccc2)C1 (stereo not given) | inactive: 72%
Cc1cc(C)cc(-n2nnc(-c3nc(-c4ccc5c(c4)OCO5)no3)c2C)c1 | inactive: 73%
Cc1ccc(C(=O)NCCn2c(C)cc3ccccc32)cc1C | inactive: 73%
Cc1ccc(S(=O)(=O)C(CNC(=O)C(=O)NCc2ccc(Cl)cc2)c2cccs2)cc1 (stereo not given) | inactive: 74%
CC(=O)c1ccc(NC(=O)c2cn3c4c(ccc(Cl)c4c2=O)OC(C)C3)cc1 (stereo not given) | inactive: 91%
CCC(=O)N1c2ccc(S(=O)(=O)N3CCN(c4ccccc4)CC3)cc2CC1C (stereo not given) | inactive: 84%
COc1cc2c(=O)n(CCC(=O)NCC3CCCO3)c(=O)n(CC(=O)Nc3ccc(C)cc3)c2cc1OC (stereo not given) | inactive: 92%
Cn1cnc2sc3c(c2c1=O)CCCC3 | inactive: 95%
Cc1c(NC(=O)c2ccc(OC(C)C)cc2)cccc1-c1nc2ncccc2o1 | inactive: 83%
Cc1ccc(S(=O)(=O)c2cn(CC(=O)Nc3ccc(C)c(Cl)c3)c3ccc(C)cc3c2=O)cc1 | inactive: 85%
CC(Oc1ccc(F)cc1)C(=O)NCC1(N(C)C)CCCCC1 (stereo not given) | inactive: 87%
Cc1ccc(CNC(=O)C2CCCN(S(=O)(=O)c3ccc4c(c3)oc(=O)n4C)C2)cc1 (stereo not given) | inactive: 106%
O=C1CN(C(=O)c2ccc(S(=O)(=O)N3CCCCC3)cc2)C(c2ccc(F)cc2)c2cc(F)ccc2N1 (stereo not given) | inactive: 83%
COc1cccc(C(=O)NCCSc2c(-c3ccc(F)cc3)[nH]c3ccccc23)c1OC | inactive: 65%
Cc1cc(F)c(F)c(C(=O)N2CCCCCC2)c1Cl | inactive: 124%
CC(C)Oc1ccc(CNC(=O)CCCn2c(=O)c3cccn3c3ccccc32)cc1 | inactive: 54%
CCCS(=O)(=O)Nc1cc(-c2cn3cccc(C)c3n2)ccc1C | inactive: 86%
Cc1ccc(C(=O)CSc2nc(C)cc(C)c2C#N)cc1 | inactive: 102%
COc1ccc(-c2cc(C(F)(F)F)c(C#N)c(SCC(=O)Nc3ccc(F)cc3)n2)cc1 | inactive: 77%
